Source: PubChem BioAssay AID720707 (National Center for Advancing Translational Sciences (NCATS), 2013)
Among all 360,000 compounds or so, about 270 (0.075%) were called active. Inconclusive results, whose numbers are uncertain, are shown with a selection of clear calls. The call rests on the fitted dose curve; in most records, active means well fitted activation curve with a large enough effect; inconclusive means small, poorly fitted or top-dose-only effect; inactive means no such curve, though single readings can be large or run the other way. No potency is given beside an inconclusive call; the fits are too rough.

Target: Rap guanine nucleotide exchange factor 3 (Homo sapiens) (UniProt O95398)
UniProt O95398, sequence (O95398 whole entry, looked up): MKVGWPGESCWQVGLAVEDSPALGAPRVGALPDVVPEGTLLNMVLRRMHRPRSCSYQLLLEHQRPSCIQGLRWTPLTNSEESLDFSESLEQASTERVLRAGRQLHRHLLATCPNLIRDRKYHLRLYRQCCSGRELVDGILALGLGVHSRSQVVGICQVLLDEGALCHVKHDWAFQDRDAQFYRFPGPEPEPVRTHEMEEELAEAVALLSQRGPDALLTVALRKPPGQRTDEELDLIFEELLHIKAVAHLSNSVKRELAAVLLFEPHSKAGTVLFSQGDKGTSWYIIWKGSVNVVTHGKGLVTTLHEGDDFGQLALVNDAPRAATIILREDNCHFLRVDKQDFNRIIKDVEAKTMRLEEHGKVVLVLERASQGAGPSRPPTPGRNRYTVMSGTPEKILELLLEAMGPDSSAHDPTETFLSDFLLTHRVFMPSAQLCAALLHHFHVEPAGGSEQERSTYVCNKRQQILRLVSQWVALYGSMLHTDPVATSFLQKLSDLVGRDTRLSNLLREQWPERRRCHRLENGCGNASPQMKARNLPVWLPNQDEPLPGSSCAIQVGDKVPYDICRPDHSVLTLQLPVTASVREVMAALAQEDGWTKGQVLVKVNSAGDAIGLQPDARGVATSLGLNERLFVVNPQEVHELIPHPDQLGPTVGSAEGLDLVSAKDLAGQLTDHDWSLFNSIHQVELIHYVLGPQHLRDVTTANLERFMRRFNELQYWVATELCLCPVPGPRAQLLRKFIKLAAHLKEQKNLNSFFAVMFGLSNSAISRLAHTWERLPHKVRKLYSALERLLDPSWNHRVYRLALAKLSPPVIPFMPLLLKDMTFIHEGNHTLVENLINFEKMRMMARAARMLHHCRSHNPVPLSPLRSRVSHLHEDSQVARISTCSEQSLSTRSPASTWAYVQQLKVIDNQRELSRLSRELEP
Experiment: qHTS for Agonist of cAMP-regulated guanine nucleotide exchange factor 3 (EPAC1): primary screen; further: nearly all actives have a fitted effect of over 60% in size
Conditions: biochemical assay; activation: at 154 µM (top of the series), 100% = response to 6.5 mM cAMP
Source text: In multi-cellular eukaryotic organisms, the effects of cAMP are transduced by two ubiquitously-expressed intracellular cAMP receptors, the classic protein kinase A/cAMP-dependent protein kinase (PKA/cAPK) and the more recently discovered exchange protein directly activated by cAMP/cAMP-regulated guanine nucleotide exchange factor (EPAC/cAMP-GEF). Both PKA and EPAC are ubiquitously expressed in all tissues, and an increase in intracellular cAMP levels will lead to the activation of both PKA and EPAC. Therefore, careful dissections of the individual role and relative contribution of EPAC and PKA within the overall cAMP signaling in various model systems are critical for further elucidating the mechanism of cAMP signaling. To date no EPAC-specific antagonists and agonist, as well as isoform-specific agonists have been reported, and developing EPAC-specific pharmacological probes to determine the physiological functions that EPAC play in the overall cAMP-mediated signaling remains a major challenge within the research field. Furthermore, identified regulators of EPAC may lead to new mechanism-based therapeutic strategies specifically targeting the EPAC / cAMP-signaling components as EPAC has been implicated to play important roles in major human pathological conditions such as diabetes, heart disease, and cancer.
This qHTS will be used to screen the Molecular Libraries Small Molecule Repository (MLSMR) as a concentration-titration series using the NCGC unique quantitative screening (qHTS) platform to find activators for EPAC1. In addition, this assay will also be used as a counterscreen for the EPAC2 qHTS. This fluorescent based assay is developed and validated for EPAC1 that measures exchange using EPAC effector Rap1 complex with BODIPY-GDP, a GDP analog with a tethered fluorophores. Activators are identified by monitoring the change in fluorescence signal as the exchanged free BODIPY-GDP has a reduced fluorescence compared to Rap1-bound BODIPY-GDP. Increase in signal (activation) is the desired outcome for the EPAC1 agonist while no activity in this assay is desired for the EPAC2 agonist counterscreen.
[1] de Rooij, J., Zwartkruis, F. J., Verheijen, M. H., Cool, R. H., Nijman, S. M., Wittinghofer, A., and Bos, J.L. (1998) Nature 396, 474-477
NIH Chemical Genomics Center [NCGC]
NIH Molecular Libraries Probe Centers Network [MLPCN]
Assay Submitter (PI): Xiaodong Cheng, The University of Texas Medical Branch
Briefly, three uL of reagents (100 nM EPAC1, 250 nM RAP1B-BODIPY-GDP, 50 uM GDP) were dispensed into a 1536-well Greiner black solid-bottom medium binding assay plate. Controls and test compounds (23 nL) were transferred to the plate via a Kalypsys pin tool equipped with a 1536-pin array. The plates were centrifuged at 1,000 rpm for 15 seconds followed by 5 minute incubation at room temperature. The assay plates were read at 5 minute intervals for 30 minutes in the ViewLux plate reader using 480nm excitation and 540nm emission filters. The results were normalized to the agonist positive control of 6.5 mM cAMP.
Potency means the concentration at half of the fitted maximal effect; tags describe the fitted curve by direction and shape.

Structure (SMILES)	Potency	activation
CN(C)CCn1c2c(c(SCC(=O)Nc3ccccc3C(F)(F)F)nc1=O)CCCC2	inconclusive [activator, single point]	–
Cc1ccccc1NC(NC(=O)c1cccs1)C(Cl)(Cl)Cl (stereo not given)	inconclusive [activator, single point]	–
O=S(=O)(NCCC1=CCCCC1)c1cccc(Br)c1	inconclusive [activator, full curve]	–
O=C(Cc1ccccc1Cl)Nc1ccc(S(=O)(=O)N2CCOCC2)cc1	inconclusive [activator, full curve, poor fit]	–
CC1CCN(Cc2c(C(=O)N/N=C/c3cc(Br)ccc3O)nnn2-c2nonc2N)CC1	inactive	–
CCOC(=O)N1CCN(c2ccnc3cc(Cl)ccc23)CC1	inactive	–
C=CCN(CC=C)C(=O)COn1nnc2ccc(S(=O)(=O)N3CCOCC3)cc21	inconclusive [activator, single point]	–
CN(CC(=O)NCc1ccccc1F)S(=O)(=O)c1ccc(Cl)cc1	inactive	–
O=C(N/N=C/C(Cl)=C/c1ccc([N+](=O)[O-])cc1)C(=O)Nc1ccccc1C(=O)O	inconclusive [activator, partial curve]	–
OCCc1ccc(O)c(-n2nc3ccccc3n2)c1	inactive	–
CC(=O)Oc1ccc2c(c1)O/C(=C\c1ccncc1)C2=O	active: 89.1 µM	–
Cc1cccc(C)c1NC(=O)C1(C)CSCC(=O)N1CCc1c[nH]c2ccccc12 (stereo not given)	inactive	–
Cc1cc(C)cc(OCC(=O)OCC(=O)N(C)CC(=O)Nc2ccc(F)cc2)c1	inconclusive [activator, partial curve, poor fit]	–
O=C(O)c1cccc(-c2ccc(/C=c3/sc4nc5ccccc5n4c3=O)o2)c1	inconclusive [activator, partial curve]	–
O=C(NCCCn1ccnc1)c1ccc(Cl)cc1	inactive	–
Cc1ccccc1C(=O)NCC(=O)NCC1(N2CCOCC2)CCCCC1	inconclusive [activator, partial curve]	–
COc1cccc2c1C(=O)c1c(O)c3c(c(O)c1C2=O)C[C@@](O)(C(=O)CO)C[C@@H]3OC1CC(N)C(O)C(C)O1 (stereo not given in full)	inconclusive [activator, partial curve]	–
COc1ccc(CNC(=O)C(C#N)c2nc3ccccc3nc2N2CCCC2)cc1 (stereo not given)	inconclusive [activator, single point]	–
CC(C)Oc1cc(NC(=O)CSCC(=O)Nc2cccc(C(F)(F)F)c2)c(Cl)cc1Cl	inconclusive [activator, partial curve]	–
CCn1cc(C=C2C(=O)c3ccccc3C2=O)c2ccccc21	inconclusive [activator, full curve]	–
CCc1cc(-c2onc(C)c2-c2cscn2)c(O)cc1OC	inactive	–
CCN(CC)C(=O)CSc1nnc2nnc3cc(OC)ccc3n12	inconclusive [activator, partial curve]	–
O=C(COC(=O)COc1ccc(Cl)cc1Cl)NC1CCCC1	inconclusive [activator, partial curve]	–
CN1CCN(C2=C(Cl)C(=O)c3ccccc3C2=O)CC1	inactive	–

Structure (SMILES)	Potency	activation
CCOc1ccc(-c2cccc(NC(=O)c3ccco3)c2)nn1	inconclusive [activator, single point]	–
CN(C)c1ccc(/C=C/c2nc3ccccc3c(=O)n2-c2ccc(C(=O)O)cc2)cc1	active: 63.1 µM	–
COc1cccc(C(=O)NC2CC(C)(C)Cc3c2cnn3-c2cccc(F)c2)c1OC (stereo not given)	inconclusive [activator, partial curve]	–
c1ccc(CN2CCC(Nc3nc(-c4cccs4)nc4ccccc34)CC2)cc1	inactive	–
CC(C)=CCCC(C)c1cc(C(=O)NCCc2ccc(O)cc2)c(N)s1 (stereo not given)	inactive	–
CCOc1ccc(NC(=O)CN(C)C(=O)c2ccccc2SCc2c(C)noc2C)cc1OCC	inconclusive [activator, partial curve, poor fit]	–
CN(C)c1ccc(/C=C(/NC(=O)c2ccccc2)C(=O)NCCCn2ccnc2)cc1	inconclusive [activator, partial curve]	–
Cc1ccccc1Nc1cccc2nonc12	inconclusive [activator, partial curve]	–
CC(OC(=O)/C(C#N)=C/c1ccc(N(C)C)cc1)C(=O)N(C)Cc1ccccc1 (stereo not given)	inconclusive [activator, partial curve]	–
COc1ccccc1C(=O)COC(=O)CCN=C1NS(=O)(=O)c2ccccc21	inconclusive [activator, single point]	–
COc1cc(/C=C2\SC(=S)N(C(Cc3ccccc3)C(=O)O)C2=O)ccc1O (stereo not given)	inactive	–
O=C(COc1ccccc1/C=C\c1[nH]c(=O)[nH]c(=O)c1[N+](=O)[O-])Nc1ccccc1	inactive	–
O=C(COc1ccccc1Cl)Nc1cccc(S(=O)(=O)NC2=NCCCCC2)c1	active: 126 µM	–
COc1ccc(N=C2NC(=O)S/C2=C\c2ccc(N(C)C)cc2)cc1	inconclusive [activator, partial curve, poor fit]	–
S=c1[nH]nc(-c2cc(-c3ccccc3)n[nH]2)n1/N=C/C(Br)=C/c1ccccc1	inconclusive [activator, partial curve, poor fit]	–
Cc1cccc(N(CC(O)CON=C2c3ccccc3-c3ccccc32)S(C)(=O)=O)c1 (stereo not given)	inconclusive [activator, partial curve]	–
Cc1cc(C)cc(OCC(=O)OCC(=O)NC2CCCCCCC2)c1	inconclusive [activator, partial curve]	–
CCOc1ccc(C(=O)/C=C/c2cn(CN3CCN(C)CC3)c3ccccc23)cc1	inconclusive [activator, partial curve]	–
Cc1cccc(/C=C(\C(=O)O)c2ccc(S(=O)(=O)N3CCCC3)s2)c1	inactive	–
COc1cccc2c1C(=O)c1c(O)c3c(c(O)c1C2=O)CC(O)(C(C)=NNC(=O)c1ccc(Cl)c(Cl)c1)CC3OC1CC(N)C(O)C(C)O1 (stereo not given)	inconclusive [activator, partial curve]	–
COCCN1C=C2C(=O)C(C)(OC(=O)CCC(=O)OC)C(=O)C(Br)=C2C=C1c1ccc(OC)cc1 (stereo not given)	inactive	–
CN(C)S(=O)(=O)c1ccc2c(c1)/C(=C/c1cc3c([nH]1)CCCC3)C(=O)N2	inconclusive [activator, partial curve]	–
C/C(=N\N=C(/N)SC1CC(=O)N(c2cccc(Cl)c2)C1=O)c1cccs1 (stereo not given)	inconclusive [activator, partial curve]	–
C/C(=N/NC(=O)c1cc(C)[nH]n1)c1ccncc1	inactive	–

Structure (SMILES)	Potency	activation
CCOC(=O)c1sc(NC(=O)CN2C(=O)NC3(CC(C)CC(C)(C)C3)C2=O)cc1C (stereo not given)	inconclusive [activator, partial curve, poor fit]	–
Cc1nnc(-c2ccc(N3CCOCC3)c([N+](=O)[O-])c2)o1	inactive	–
O=c1[nH]ncc2c3ccccc3n(Cc3cccc(Cl)c3)c12	active: 79.4 µM	–
Cc1cc(C)c(C(=O)c2cccs2)c(C)c1	inactive	–
Cn1c(-c2ccccc2)c(Sc2ccccc2)c2cc(-c3ccc4cc[nH]c4c3)ccc21	inactive	–
Cc1ccc(/C=C(\CCC(=O)O)c2nc3ccccc3s2)cc1[N+](=O)[O-]	inactive	–
CCCN1C(=O)/C(=C/c2c(N3CCNC(=O)C3CC(=O)OCC)nc3c(C)cccn3c2=O)SC1=S (stereo not given)	–	inconclusive: 30.7% [activator]
Cc1cc(C(=O)Nc2cc(C(C)(C)C)on2)c(C)o1	inactive	–
CCOC(=O)c1ccc(NC(=O)Nc2ccccn2)cc1	inactive	–
Cc1ccc(C(=O)NCCSc2ccc(Cl)cc2)cc1S(=O)(=O)Nc1ccccc1	inconclusive [activator, partial curve]	–
CCn1cnc2cc(NC(=O)c3ccc(C)cc3)ccc21	inactive	–
c1coc(-c2nnc(-c3ccco3)nn2)c1	inactive	–
O=C(COC(=O)c1ccc2[nH]c3c(c2c1)CCCC3)Nc1ccccc1	inactive	–
COc1cccc(COC(=O)C2CCN(S(=O)(=O)c3cccs3)CC2)c1OC	inconclusive [activator, single point]	–
CN(C(=O)COC(=O)/C=C/c1ccc2c(c1)OCO2)c1c(N)n(Cc2ccccc2)c(=O)[nH]c1=O	inconclusive [activator, single point]	–
COc1ccc(-c2cn[nH]c2-c2ccc(OC)cc2O)cc1	inconclusive [activator, partial curve]	–
COCCN1C(=O)/C(=C/c2ccc(N3CCCC3)cc2C)SC1=S	inconclusive [activator, single point]	–
CC(=O)N1CCN(S(=O)(=O)c2ccc(C)cc2)C1C (stereo not given)	inconclusive [activator, single point]	–
COc1ccc(/C=N\NC(=O)c2ccc(-c3ccccc3)cc2)cc1COC(C)=O	inconclusive [activator, partial curve]	–
COCCn1c(N)c(C(=O)NCc2cccs2)c2nc3ccccc3nc21	inconclusive [activator, partial curve]	–
CCOC(=O)N/N=C\c1ccc(OC/C=C/c2ccccc2)c(OC)c1	inconclusive [activator, full curve]	–
CCCCN(CCCNC(=O)CN1C(=O)COc2ccccc21)c1ccccc1	inconclusive [activator, partial curve]	–
